Measurements published in the supplement of paper PMC8728848.
Some of the results follow.

Legend:
Test in all cases: glycan array binding signal (z-score within array); higher = stronger binding
Conditions in all cases: glycan notation: IUPAC condensed, linker removed
[1] = molecular target: GlcNAc(b1-3)Gal(b1-4)GlcNAc(b1-3)Gal(b1-4)GlcNAc(b1-2)Man(a1-3)[GlcNAc(b1-3)Gal(b1-4)GlcNAc(b1-3)Gal(b1-4)GlcNAc(b1-2)Man(a1-6)]Man(b1-4)GlcNAc(b1-4)[Fuc(a1-6)]GlcNAc
Outline: (§1)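 The binding signal is a Z-score computed within each array. Data were drawn from 3228 arrays in the Consortium for Functional Glycomics database, restricted to those with a known protein sequence. Scores were averaged over arrays of the same protein sequence at different concentrations or buffers, and over linkers, and negative values can be taken as non-binding.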

[2] = molecular target: GlcNAc(b1-3)Gal(b1-4)GlcNAc(b1-3)Gal(b1-4)GlcNAc(b1-2)[GlcNAc(b1-3)Gal(b1-4)GlcNAc(b1-3)Gal(b1-4)GlcNAc(b1-6)]Man(a1-6)[GlcNAc(b1-3)Gal(b1-4)GlcNAc(b1-3)Gal(b1-4)GlcNAc(b1-2)Man(a1-3)]Man(b1-4)GlcNAc(b1-4)[Fuc(a1-6)]GlcNAc
Outline: as §1

[3] = molecular target: GlcNAc(b1-3)Gal(b1-4)GlcNAc(b1-3)Gal(b1-4)GlcNAc(b1-3)Gal(b1-4)GlcNAc(b1-2)Man(a1-3)[GlcNAc(b1-3)Gal(b1-4)GlcNAc(b1-3)Gal(b1-4)GlcNAc(b1-3)Gal(b1-4)GlcNAc(b1-2)Man(a1-6)]Man(b1-4)GlcNAc(b1-4)GlcNAc
Outline: as §1

[4] = molecular target: GlcNAc(b1-3)Gal(b1-4)GlcNAc(b1-3)Gal(b1-4)GlcNAc(b1-3)Gal(b1-4)GlcNAc(b1-2)Man(a1-3)[GlcNAc(b1-3)Gal(b1-4)GlcNAc(b1-3)Gal(b1-4)GlcNAc(b1-3)Gal(b1-4)GlcNAc(b1-2)Man(a1-6)]Man(b1-4)GlcNAc(b1-4)[Fuc(a1-6)]GlcNAc
Outline: as §1

[5] = molecular target: GlcNAc(b1-3)Gal(b1-4)GlcNAc(b1-3)Gal(b1-4)GlcNAc(b1-3)Gal(b1-4)GlcNAc(b1-2)[GlcNAc(b1-3)Gal(b1-4)GlcNAc(b1-3)Gal(b1-4)GlcNAc(b1-3)Gal(b1-4)GlcNAc(b1-6)]Man(a1-6)[GlcNAc(b1-3)Gal(b1-4)GlcNAc(b1-3)Gal(b1-4)GlcNAc(b1-3)Gal(b1-4)GlcNAc(b1-2)Man(a1-3)]Man(b1-4)GlcNAc(b1-4)[Fuc(a1-6)]GlcNAc
Outline: as §1

[6] = molecular target: GlcNAc(b1-3)Gal(b1-4)GlcNAc(b1-3)Gal(b1-4)GlcNAc(b1-3)Gal(b1-4)GlcNAc(b1-3)Gal(b1-4)GlcNAc(b1-2)Man(a1-3)[GlcNAc(b1-3)Gal(b1-4)GlcNAc(b1-3)Gal(b1-4)GlcNAc(b1-3)Gal(b1-4)GlcNAc(b1-3)Gal(b1-4)GlcNAc(b1-2)Man(a1-6)]Man(b1-4)GlcNAc(b1-4)GlcNAc
Outline: as §1

[7] = molecular target: GlcNAc(b1-3)Gal(b1-4)GlcNAc(b1-3)Gal(b1-4)GlcNAc(b1-3)Gal(b1-4)GlcNAc(b1-3)Gal(b1-4)GlcNAc(b1-2)Man(a1-3)[GlcNAc(b1-3)Gal(b1-4)GlcNAc(b1-3)Gal(b1-4)GlcNAc(b1-3)Gal(b1-4)GlcNAc(b1-3)Gal(b1-4)GlcNAc(b1-2)Man(a1-6)]Man(b1-4)GlcNAc(b1-4)[Fuc(a1-6)]GlcNAc
Outline: as §1

[8] = molecular target: GlcNAc(b1-3)Gal(b1-4)GlcNAc(b1-3)Gal(b1-4)GlcNAc(b1-3)Gal(b1-4)GlcNAc(b1-3)Gal(b1-4)GlcNAc(b1-2)[GlcNAc(b1-3)Gal(b1-4)GlcNAc(b1-3)Gal(b1-4)GlcNAc(b1-3)Gal(b1-4)GlcNAc(b1-3)Gal(b1-4)GlcNAc(b1-6)]Man(a1-6)[GlcNAc(b1-3)Gal(b1-4)GlcNAc(b1-3)Gal(b1-4)GlcNAc(b1-3)Gal(b1-4)GlcNAc(b1-3)Gal(b1-4)GlcNAc(b1-2)Man(a1-3)]Man(b1-4)GlcNAc(b1-4)[Fuc(a1-6)]GlcNAc
Outline: as §1

[9] = molecular target: GlcNAc(b1-3)Gal(b1-4)GlcNAc(b1-3)Gal(b1-4)GlcNAc(b1-3)GalNAc
Outline: as §1

[10] = molecular target: GlcNAc(b1-3)Gal(b1-4)GlcNAc(b1-3)GalNAc
Outline: as §1

[11] = molecular target: GlcNAc(b1-3)Gal(b1-4)GlcNAc(b1-3)[GlcNAc(b1-3)Gal(b1-4)GlcNAc(b1-3)]GalNAc
Outline: as §1

[12] = molecular target: GlcNAc(b1-3)Gal(b1-4)GlcNAc(b1-6)[Gal(b1-3)]GalNAc
Outline: as §1

[13] = molecular target: GlcNAc(b1-3)Gal(b1-4)GlcNAc(b1-6)[GlcNAc(b1-3)Gal(b1-3)]GalNAc
Outline: as §1

[14] = molecular target: GlcNAc(b1-3)Gal(b1-4)GlcNAc(b1-6)[GlcNAc(b1-3)]Gal(b1-4)GlcNAc
Outline: as §1

GlcNAc(b1-3)GalNAc = molecular target: GlcNAc(b1-3)GalNAc
Outline: as §1

GlcNAc(b1-3)Man = molecular target: GlcNAc(b1-3)Man
Outline: as §1

[15] = molecular target: GlcNAc(b1-3)[GlcNAc(b1-4)][GlcNAc(b1-6)]GlcNAc
Outline: as §1

[16] = molecular target: GlcNAc(b1-3)[GlcNAc(b1-6)]Gal(b1-4)GlcNAc
Outline: as §1

[17] = molecular target: GlcNAc(b1-3)[GlcNAc(b1-6)]GalNAc
Outline: as §1

[18] = molecular target: GlcNAc(b1-4)Gal(b1-4)GlcNAc
Outline: as §1

GlcNAc(b1-4)GlcNAc = molecular target: GlcNAc(b1-4)GlcNAc
Outline: as §1

[19] = molecular target: GlcNAc(b1-4)GlcNAc(b1-4)GlcNAc
Outline: as §1

[20] = molecular target: GlcNAc(b1-4)GlcNAc(b1-4)GlcNAc(b1-4)GlcNAc(b1-4)GlcNAc
Outline: as §1

[21] = molecular target: GlcNAc(b1-4)GlcNAc(b1-4)GlcNAc(b1-4)GlcNAc(b1-4)GlcNAc(b1-4)GlcNAc
Outline: as §1

[22] = molecular target: GlcNAc(b1-4)[GlcNAc(b1-6)]GalNAc
Outline: as §1

[23] = molecular target: GlcNAc(b1-6)Gal(b1-4)GlcNAc
Outline: as §1

GlcNAc(b1-6)GalNAc = molecular target: GlcNAc(b1-6)GalNAc
Outline: as §1

[24] = molecular target: GlcNAc6S(b1-3)Gal(b1-4)GlcNAc
Outline: as §1

Kdn(a2-3)Gal(b1-3)GalNAc = molecular target: Kdn(a2-3)Gal(b1-3)GalNAc
Outline: as §1

Kdn(a2-3)Gal(b1-3)GlcNAc = molecular target: Kdn(a2-3)Gal(b1-3)GlcNAc
Outline: as §1

Kdn(a2-3)Gal(b1-4)Glc = molecular target: Kdn(a2-3)Gal(b1-4)Glc
Outline: as §1

Kdn(a2-3)Gal(b1-4)GlcNAc = molecular target: Kdn(a2-3)Gal(b1-4)GlcNAc
Outline: as §1

[25] = molecular target: Kdn(a2-3)Gal(b1-4)[Fuc(a1-3)]GlcNAc
Outline: as §1

Kdn(a2-6)Gal(b1-4)GlcNAc = molecular target: Kdn(a2-6)Gal(b1-4)GlcNAc
Outline: as §1

[26] = molecular target: Man(a1-2)Man(a1-2)Man(a1-3)Man
Outline: as §1

[27] = molecular target: Man(a1-2)Man(a1-2)Man(a1-6)[Man(a1-3)]Man
Outline: as §1

Man(a1-2)Man(a1-3)Man = molecular target: Man(a1-2)Man(a1-3)Man
Outline: as §1

[28] = molecular target: Man(a1-2)Man(a1-3)[Man(a1-2)Man(a1-6)]Man
Outline: as §1

B1: PX9961V-pdi-562-26-562 (Parabacteroides distasonis) (protein)
chain: EIFSEITTDNYYQNSNNIYAALVNNYAKAFSTGWSDARYFLQEVTADQLMIPTRGKHGYNGGEYVRLHEHKWTVEENFVYNGWAAPFQGIALCNNTLSDFENLDFSTFKLTEETKNEYIAELRALRVWNYMFLIDFFRHVPIVTDIEEVKAQSTPLEVFNFMESELLAILPDLPKNRGVSRFDQAGVASILVRLYLNAEKWIGISKYDECEQMAQAILDGKYGEYSIDPDYRGPFRSGINGYRSKENIMEFAIKKNYFEASWLYNMWMHYQDRYSLDNDWQGWNGGNLAPSRDLYGNLYQDKLGMPFEKFPDGDIRKKAFRVISNDGDYEGFFLMGTQYKFDYEKGYGFTDEVITGTEEYNGKPLVYVDQVGRFSEGETGLAKGSHVIYGEENTGYRLIKFPWLPQSKDLFQMNSIPEIRLAEIYYSLAECKYRSGDKIGAARLLDVVRKRYYKAEDWSKFSYESNISKLTDDEFVDELGREFIGERHRRIDLIRWNRFSEGAWWDKTPDATNQDVFPIPYRALNANPLLKQTTAGF
In the case of B1, the “glycan array binding signal (z-score)” value [1] is reported as -0.392, the “glycan array binding signal (z-score)” value [2] is reported as -0.087 and the “glycan array binding signal (z-score)” value [3] is reported as 1.27. The “glycan array binding signal (z-score)” value [4] was 0.018, the “glycan array binding signal (z-score)” value [5] was -0.05 and the “glycan array binding signal (z-score)” value [6] was 0.359. The “glycan array binding signal (z-score)” value [7] was 0.5, the “glycan array binding signal (z-score)” value [8] was -0.125 and the “glycan array binding signal (z-score)” value [9] was -0.195. For the same binder, the “glycan array binding signal (z-score)” value [10] was -0.335, the “glycan array binding signal (z-score)” value [11] was -0.471 and the “glycan array binding signal (z-score)” value [12] was -0.414. For the same binder, the “glycan array binding signal (z-score)” value [13] was -0.019, the “glycan array binding signal (z-score)” value [14] was -0.504 and the “glycan array binding signal (z-score)” value (GlcNAc(b1-3)GalNAc) was -0.21. The “glycan array binding signal (z-score)” value (GlcNAc(b1-3)Man) was -0.452, the “glycan array binding signal (z-score)” value [15] was -0.199 and the “glycan array binding signal (z-score)” value [16] was -0.776. The “glycan array binding signal (z-score)” value [17] was -0.317, the “glycan array binding signal (z-score)” value [18] was -0.145 and the “glycan array binding signal (z-score)” value (GlcNAc(b1-4)GlcNAc) was -0.216. The “glycan array binding signal (z-score)” value [19] was 0.165, the “glycan array binding signal (z-score)” value [20] was 0.049 and the “glycan array binding signal (z-score)” value [21] was -0.685. For the same binder, the “glycan array binding signal (z-score)” value [22] was -0.379, the “glycan array binding signal (z-score)” value [23] was -0.14 and the “glycan array binding signal (z-score)” value (GlcNAc(b1-6)GalNAc) was 0.201. For the same binder, the “glycan array binding signal (z-score)” value [24] was 0.315, the “glycan array binding signal (z-score)” value (Kdn(a2-3)Gal(b1-3)GalNAc) was 0.345 and the “glycan array binding signal (z-score)” value (Kdn(a2-3)Gal(b1-3)GlcNAc) was -0.726. The “glycan array binding signal (z-score)” value (Kdn(a2-3)Gal(b1-4)Glc) was 1.04, the “glycan array binding signal (z-score)” value (Kdn(a2-3)Gal(b1-4)GlcNAc) was -0.461 and the “glycan array binding signal (z-score)” value [25] was 2.11. For the same binder, the “glycan array binding signal (z-score)” value (Kdn(a2-6)Gal(b1-4)GlcNAc) was 0.151, the “glycan array binding signal (z-score)” value [26] was -0.624 and the “glycan array binding signal (z-score)” value [27] was -0.665. The “glycan array binding signal (z-score)” value (Man(a1-2)Man(a1-3)Man) was -0.467 and the “glycan array binding signal (z-score)” value [28] was -0.66.
